Molecules are shown by their SMILES. About 1,700 (3.3%) of roughly 52,000 compounds were called active. Rule as the data show it: active = survival mostly below about 52% (no sharp cut-off); inactive = mostly above about 56%. Some of the results follow.

For the experiment, the system named is Wild type. Briefly: growth inhibition of S. aureus wild type versus tarO mutant, primary screen, teichoic acid synthesis inhibitors, RN4220, OD600 (AID 463173). Conditions: S. aureus RN4220 wild type/DeltatarO growth, OD600, 18 h, active compounds read low, screened at 18.75 µg/mL (by protocol).
For `COc1ccc(C(=O)NCC(c2cccnc2)N2CCN(c3ccccc3F)CC2)cc1OC` (stereo not drawn), the survival was inactive: 83%.
The same measure for `COC(=O)c1c(C)sc(-c2c(-c3ccc(F)cc3)[nH]c3[nH]c(=O)[nH]c(=O)c23)c1O`: inactive: 115%; for `Cc1ccc(NC(=O)C2CCN(S(=O)(=O)c3cccs3)CC2)cc1`: inactive: 74%; for `CCCc1nn2c(=O)cc(COC(=O)c3ccccc3NC(=O)C3CCCCC3)nc2s1`: inactive: 73%.
The same measure for `O=C(CCCC(=O)Nc1nccs1)Nc1nccs1`: inactive: 111%; for `CCC(=O)N1CCc2cc(S(=O)(=O)CCC(=O)NCc3ccccc3Cl)ccc21`: inactive: 86%; for `COc1ccc(CCNC(=O)CCc2c(C)nc3c(-c4ccc(F)cc4)c(C)nn3c2C)cc1OC`: inactive: 137%.
The same measure for `Cc1ccc(-n2c(SCc3nc(-c4ccc(Cl)cc4)no3)nnc2-c2ccncc2)cc1`: inactive: 50%.
Take `CCc1ccc(NC(=O)CN(c2ccc(C)cc2)S(=O)(=O)c2c(C)nn(C)c2C)cc1`: the survival is inactive: 76%.
Under `COCCCNC(=O)N1CCN(c2nnc(C)c3c(C)n(-c4ccc(Cl)cc4)nc23)CC1` stands inactive: 72%; under `CC1=C(C(=O)OC2CCCCCC2)C(c2ccccc2Cl)CC(=O)N1` (stereo not drawn), inactive: 80%.
Under `COc1ccc(Cn2c(C(=O)O)c(CNCCc3cccs3)c3ccc(OC)cc32)cc1` stands inactive: 87%.
Under `CCOc1cccc(CC(=O)N2CCc3c([nH]c4ccccc34)C2c2ccc(OC)cc2)c1OCC` (stereo not drawn) stands inactive: 88%.
Take `Cc1ccccc1CN1C(=O)c2ccccc2S(=O)c2ccc(C(=O)NCc3ccccc3)cc21` (stereo not drawn): the survival was inactive: 77%.
Under `Cc1oc2ncn(C)c(=O)c2c1C(=O)N1CCN(c2ccc(Cl)cc2)CC1` stands inactive: 55%; under `COc1cccc(CNCCCSc2nnnn2C)c1`, inactive: 107%.
The same measure for `Cc1nn(C)c2c1c(-c1ccccc1)cc(=O)n2Cc1c(F)cccc1Cl`: active: -6%.
The same measure for `O=C(c1cc(-c2ccc(Cl)cc2)on1)N(Cc1ccc(F)cc1)Cc1ccco1`: inactive: 77%; for `Cc1ccccc1Nc1c(-c2ccccc2O)nc2sccn12`: inactive: 90%.
As to `O=C1c2oc3ccccc3c(=O)c2C(c2cccc(O)c2)N1Cc1ccc(F)cc1` (stereo not drawn), the survival was inactive: 82%.
For the molecule `CCOc1ccc(N(CC(=O)Nc2ccc3c(c2)OCO3)S(=O)(=O)c2ccccc2)cc1`, the survival was inactive: 93%.
Turning to `CC(C)Sc1ncc(Cl)c(C(=O)Nc2c(C(=O)Nc3ccccc3)oc3ccccc23)n1`, the survival is inactive: 94%.
Under `Cc1cccc2cc(CN(Cc3ccco3)C(=O)N3CCOCC3)c(Cl)nc12` stands inactive: 108%.
As to `CCN(c1ccccc1)S(=O)(=O)c1nnc(NC(=O)C(C)Oc2ccccc2)s1` (stereo not drawn), the survival is inactive: 55%.
With `CCOC(=O)Cc1ccc(NC(=O)N2CCC(CN3CCC(C)CC3)CC2)cc1`, the survival was inactive: 81%.
Under `COc1ccc(N(C(=O)c2ccc(C)cc2)S(=O)(=O)c2ccc(Cl)cc2)cc1` stands inactive: 84%; under `CCc1cccc(NC(=O)c2sc3nc[nH]c(=O)c3c2C)c1`, inactive: 75%; under `CCc1ccc(NS(=O)(=O)c2ccc3[nH]cc(C(=O)N4CCCCCC4)c(=O)c3c2)cc1`, inactive: 78%.
In the case of `O=C1CN(C(=O)c2ccc(S(=O)(=O)N3CCCC3)cc2)C(c2ccc(F)cc2)c2cc(F)ccc2N1` (stereo not drawn), the survival is inactive: 83%.
The same measure for `COc1cc(C2C(C(=O)Nc3ccc(C)cc3C)=C(C)Nc3nc(SCc4ccccc4)nn32)cc(OC)c1OC` (stereo not drawn): inactive: 91%; for `Cc1ccc(CNC(=O)c2cnn3c(C)c(Cc4c(F)cccc4Cl)c(C)nc23)cc1`: inactive: 65%; for `Cc1ccc2oc3c(c(=O)c2c1)C(c1cccc(O)c1)N(CCCN1CCOCC1)C3=O` (stereo not drawn): inactive: 71%.
Under `CCOc1ccc(CCNC(=O)c2ccc(C)c(-n3c(C)nc4cccnc43)c2)cc1OCC` stands inactive: 70%; under `Cc1cccc(-c2nnc(SCC(=O)NC3CCCCC3)o2)c1`, inactive: 83%; under `CCOc1ccccc1NC(=O)c1cc2ccc3cccnc3c2[nH]1`, active: 10%.
The same measure for `CCN(Cc1ccccc1)C(=O)c1cc2ccc3cccnc3c2[nH]1`: inactive: 22%; for `Cc1cc(Br)ccc1NC(=O)CN1C(=O)c2cccnc2Sc2ccccc21`: inactive: 85%.
With `COc1ccc(N(Cc2cccs2)C(=O)COc2ccc([N+](=O)[O-])cc2)cc1`, the survival is inactive: 85%.
Under `CCOc1ccc(C(=O)Nc2cc(-c3ccccc3)no2)cc1` stands inactive: 86%.
The same measure for `O=C(CCn1cnc2onc(-c3ccc(F)cc3)c2c1=O)N1CCN(c2cccc(Cl)c2)CC1`: inactive: 67%; for `O=C(Nc1ccccc1C(F)(F)F)N1CCN(c2ccc3nnc(-c4ccc(F)cc4)n3n2)CC1`: inactive: 69%.
As for `CCC(C(=O)NCCCN(CC)CC)n1ncn2c(cc3occc32)c1=O` (stereo not drawn), the survival is inactive: 80%.
Take `CCOc1ccc(CNC(=O)C2Cc3cc(S(=O)(=O)N4CCCCCC4)ccc3N2C(C)=O)cc1` (stereo not drawn): the survival was inactive: 90%.
Under `CN1CC=C2C(C#N)=C(N)C(C#N)(C#N)C(CCc3ccccc3)C2C1` (stereo not drawn) stands inactive: 104%; under `Cc1ccc(NC(=O)Cn2c(-c3nonc3N)nc3ccccc32)cc1Cl`, inactive: 92%.
Under `CC1OCC(OC(=O)c2ccccc2)CO1` (stereo not drawn) stands inactive: 100%.
Under `Cc1ccc2c(c1)C1OCCC1C(c1ccncc1)N2` (stereo not drawn) stands inactive: 113%; under `CCOc1ccc(OCC)c(NC(=O)C2CCN(c3cnccn3)CC2)c1`, inactive: 101%.
Take `O=C1C2C(C(=O)N1CC1CCCO1)C1C=CC2C12CC2` (stereo not drawn): the survival was inactive: 105%.
In the case of `O=C(CNS(=O)(=O)c1ccccc1)NCc1ccccn1`, the survival is inactive: 113%.
As for `O=C(c1ccc(F)cc1F)N1CCC(c2noc(-c3ccc(S(=O)(=O)N4CCCC4)cc3)n2)CC1`, the survival was inactive: 89%.
For `O=C(Nc1nnc(S(=O)(=O)N2CCOCC2)s1)c1ccc(F)cc1`, the survival is inactive: 80%.
The same measure for `N#Cc1cccc(NC(=O)c2ccc3c(c2)N(Cc2cccc(Cl)c2)C(=O)c2ccccc2S3(=O)=O)c1`: inactive: 98%; for `O=C(O)c1cc2ccccc2[nH]c1=O`: inactive: 100%; for `CCc1ccc(NC(=O)CN(Cc2ccccc2)S(=O)(=O)c2ccc3nc(C)sc3c2)cc1`: inactive: 73%.
For `Cc1ccccc1-c1noc(-c2ccccc2OCC(=O)Nc2ccccc2[N+](=O)[O-])n1`, the survival is inactive: 85%.
The same measure for `CCc1ccc(S(=O)(=O)c2nnn3c2nc(NCc2ccccc2OC)c2cc(Cl)ccc23)cc1`: inactive: 99%; for `Cc1ccc2c(c1)c(C)cc(=O)n2CCC(=O)O`: inactive: 106%.
The same measure for `COc1ccc(C2NC(=O)N(C)C3=C2C(=O)N(c2ccc(C)cc2)C3)cc1` (stereo not drawn): inactive: 82%; for `Cc1ccccc1CSc1nc2cccnc2n1Cc1ccc(C(=O)NCCc2cccs2)cc1`: inactive: 60%.
The same measure for `Cc1ccc2oc(=O)n(CCNC(=O)Nc3ccc(C)c(F)c3)c2c1`: inactive: 108%; for `COc1ccccc1C1C=C(c2ccc(Cl)cc2)Nc2nc(-c3ccc(Cl)cc3)nn21` (stereo not drawn): inactive: 79%.
Take `Cc1ccc(C)c(N2CCN(C(=O)C(C)n3c(C)c4cnn(-c5ccccc5)c(=O)c4c3C)CC2)c1` (stereo not drawn): the survival is inactive: 76%.
The same measure for `COc1ccc(Cl)cc1N(C)C(=O)C(=O)Nc1ccc2nc3n(c(=O)c2c1)CCCCC3`: inactive: 63%; for `Cc1ccc(N2CCN(C(=O)c3noc4c3COc3ccc(C)cc3-4)CC2)c(C)c1`: inactive: 89%; for `Cc1ccc(CN(C(=O)COc2ccc(Br)cc2)c2ccccn2)o1`: inactive: 80%.
Under `COc1ccc(NC(=O)CSc2nc(-c3ccccc3)nc3c2Cc2c(CO)cnc(C)c2O3)cc1Cl` stands inactive: 85%; under `CCCCCn1c(=N)n(CC(O)COc2cccc(C)c2)c2ccccc21` (stereo not drawn), inactive: 34%.
The same measure for `Cc1ccc(CNC(=O)c2c(-c3cccc(Br)c3)noc2C)o1`: inactive: 112%.
`CC(Nc1ccc(-c2nc(-c3ccccn3)no2)cc1[N+](=O)[O-])c1ccccc1` (stereo not drawn): the survival is inactive: 50%.
Consider `Cc1ccc(C)c(Cn2nc(C)n3c(cc4cc(C)ccc43)c2=O)c1`, for which the survival is inactive: 79%.
Under `COC(=O)c1ccc(OCC2c3cc(OC)c(OC)cc3CCN2C(=O)c2ccccc2F)cc1` (stereo not drawn) stands inactive: 75%; under `O=C(CSCc1cnn(-c2ccccc2)c1-n1cccc1)Nc1ccc(F)cc1F`, inactive: 87%; under `CCc1ccc(NC(=O)c2cc3c(=O)n(Cc4cccnc4)ccc3nc2C)cc1`, inactive: 95%.
The same measure for `Cc1cccc(C(=O)Nc2cccc(OCc3cc(=O)n4c(C)csc4n3)c2)c1`: inactive: 79%; for `COC(=O)c1ccc(Cl)c(NC(=O)C2CCN(S(=O)(=O)Cc3ccccc3)CC2)c1`: inactive: 119%; for `CCc1ccc(NC(=O)C(=O)NCC(c2cccnc2)N2CCOCC2)cc1` (stereo not drawn): inactive: 84%.
Under `CCOC(=O)c1c(-c2cccs2)csc1NC(=O)c1ccccc1` stands inactive: 113%; under `COc1ccc(Nc2nc(N)nc(CSc3nc4cc(OC)ccc4s3)n2)cc1`, active: 8%; under `COc1ccc(NC(=O)Cc2csc(COc3cccc(C)c3)n2)c(OC)c1`, inactive: 90%.
As to `CC(C)c1nn2c(=O)cc(COC(=O)CNC(=O)c3ccccc3)nc2s1`, the survival is inactive: 152%.
Under `COc1ccc(-c2noc(CCC(=O)NCc3ccc(OC)cc3OC)n2)cc1` stands inactive: 111%.
Consider `COc1ccc(OCC(=O)NCCS(=O)(=O)N2CCN(c3cccc(Cl)c3)CC2)cc1`, for which the survival was inactive: 58%.
Under `CCn1cc(C(=O)N(C)Cc2ccccc2)c(=O)c2cc(S(=O)(=O)N3CCCCCC3)ccc21` stands inactive: 75%.
Under `CCCN(CCC)CC(O)Cn1cc(/C=C/C(=O)c2ccc(OCC)cc2)c2ccccc21` (stereo not drawn) stands active: 23%; under `CCC(CC)C(=O)Nc1ccc2nc(SCC(=O)N3c4ccccc4CC3C)sc2c1` (stereo not drawn), inactive: 85%.
The same measure for `CCOC(=O)c1c(C)sc(-c2c(-c3ccc(OC)c(F)c3)[nH]c3c2c(=O)[nH]c(=O)n3C)c1O`: inactive: 109%; for `CC(C)Oc1ccc(CNC(=O)c2ccc3nc(Cc4ccccc4)oc3c2)cc1`: inactive: 73%.

The values above are taken from PubChem BioAssay AID463173 (ICCB-Longwood Screening Facility, Harvard Medical School, 2010).
